Test results reported in PubChem BioAssay AID489043 (National Center for Advancing Translational Sciences (NCATS), 2010).
Inconclusive results, whose numbers are uncertain, are shown with a selection of clear calls. A potency beside an inconclusive call is a rough fit, not a confirmed value. Activity calls are given as the source filed them. Calls come from the whole dose curve; as a rule, active = well fitted activation curve with a large enough effect; inconclusive = small, poorly fitted or top-dose-only effect; inactive = flat fitted curve, though single readings scatter.

Biological target: Relaxin receptor 2 (Homo sapiens) (UniProt Q8WXD0)
Assay: qHTS Assay for Agonists of the Relaxin Receptor RXFP1: RXFP2 Hit Validation; note: nearly all actives have a fitted effect of over 65% in size
Details: HEK293 RXFP2 cAMP TR-FRET, 30 min; series mostly up to 115 µM
Outline: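 Selectivity counter-assay for cAMP accumulation: RXFP2-HEK293 cells given compounds with Ro 20174 for 30 min at 37C, then lysed for TR-FRET cAMP detection. Data scaled to 29 nM porcine relaxin (100%); Hill-equation EC50.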
Potency is the fitted concentration of half-maximal effect; tags give direction and shape of the fitted curve.

Sequence of UniProt Q8WXD0 (Q8WXD0 whole entry, looked up): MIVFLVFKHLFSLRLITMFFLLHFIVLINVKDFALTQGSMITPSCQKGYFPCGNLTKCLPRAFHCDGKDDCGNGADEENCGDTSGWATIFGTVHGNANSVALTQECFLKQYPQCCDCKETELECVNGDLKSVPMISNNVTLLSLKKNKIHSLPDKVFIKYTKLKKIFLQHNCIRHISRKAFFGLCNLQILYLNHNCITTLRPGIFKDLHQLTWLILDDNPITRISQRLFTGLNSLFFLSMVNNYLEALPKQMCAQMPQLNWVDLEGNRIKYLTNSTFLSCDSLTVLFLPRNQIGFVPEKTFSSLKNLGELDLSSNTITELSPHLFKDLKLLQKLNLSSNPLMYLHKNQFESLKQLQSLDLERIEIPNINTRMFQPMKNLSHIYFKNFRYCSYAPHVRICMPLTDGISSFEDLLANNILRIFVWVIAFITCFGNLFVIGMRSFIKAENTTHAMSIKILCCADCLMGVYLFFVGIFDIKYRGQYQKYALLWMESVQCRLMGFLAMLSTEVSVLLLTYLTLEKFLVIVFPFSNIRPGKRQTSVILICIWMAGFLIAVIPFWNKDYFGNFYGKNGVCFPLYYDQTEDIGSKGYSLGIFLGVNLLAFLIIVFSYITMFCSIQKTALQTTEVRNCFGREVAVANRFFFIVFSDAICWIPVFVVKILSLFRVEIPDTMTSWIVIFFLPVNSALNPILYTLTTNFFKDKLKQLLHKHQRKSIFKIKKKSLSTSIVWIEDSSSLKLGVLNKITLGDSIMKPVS

Compound	Potency
COc1ccc(S(=O)(=O)N2CCOCC2)cc1NC(=O)CSc1nnc2ccccn12	active: 6.15 µM
COc1cccc(NC(=O)CSc2ccc3nnc(-c4cccnc4)n3n2)c1	inconclusive: 38.9 µM [activator, partial curve]
O=C(Nc1ccccc1C(=O)NCc1ccco1)c1ccccc1	inconclusive: 262 µM [activator, single point]
CNC(=O)c1ccccc1NC(=O)c1ccco1	inconclusive: 46.6 µM [activator, partial curve]
CCN(CC)CCCN1C=C2C(=O)C(C)(OC(=O)C3CCCC3)C(=O)C=C2C=C1c1ccsc1 (centres undefined)	inactive
COc1ccc(OC)c(NC(=O)CSc2ccc3nnc(-c4cccnc4)n3n2)c1	inactive
O=C(NCCc1nnc2ccc(SCC(=O)N3CCCC3)nn12)c1ccc(F)cc1	inconclusive: 38.9 µM [activator, partial curve]
COc1ccc(/C=C2/SC(=O)N(CC(=O)Nc3cc(C)on3)C2=O)cc1OC	inactive
O=C(Nc1ccccc1C(=O)N1CCN(c2ccccc2)CC1)c1ccco1	inactive
COc1ccc(OC)c(CNC(=O)C2CCN(C(=O)N(C)C)CC2)c1	inactive
COCCNC(=O)C(OC(=O)c1nsc(Cl)c1Cl)C(C)C (centres undefined)	inconclusive: 43.6 µM [activator, partial curve]
Cc1cc(Br)c2nc3c(c(C(=O)O)c2c1)CCCCC3	active: 1.94 µM
CC(C)n1c(CN2CCN(C(=O)c3ccco3)CC2)nc2c1c(=O)n(C)c(=O)n2C	inconclusive: 38.9 µM [activator, partial curve]
Cc1ccc(NC(=O)CCc2nnc3ccc(N4CCN(C)CC4)nn23)cc1F	active: 38.9 µM
O=C(O)c1cccc(CSc2nnc(Cc3ccccc3)o2)c1	inactive
Cc1ccc(-c2ccc3nnc(SCC(=O)NCC4CCCO4)n3n2)cc1 (centres undefined)	inactive
CCC(Sc1ccc2nnc(-c3cccnc3)n2n1)C(=O)OC (centres undefined)	inconclusive: 19.4 µM [activator, partial curve]

Compound	Potency
CC(C)c1ccccc1NC(=O)c1ccccc1NC(=O)C1CCCCC1	inactive
NC(=S)c1cc2ccc(O)cc2oc1=O	active: 4.88 µM
O=C(NC1CCCCCC1)c1cc2c(=O)n3ccccc3nc2s1	active: 38.9 µM
CCOC(=O)N1CCN(C(=O)CSc2ccc3nnc(-c4cccnc4)n3n2)CC1	inconclusive: 17.3 µM [activator, partial curve]
CC[N+](CC)(CCCCS(=O)(=O)[O-])CCNP1(=O)C=C(c2ccccc2)OC(c2ccccc2)=C1	active: 34.6 µM
O=c1oc2cc(O)c(Cl)cc2c2ccccc12	active: 6.9 µM
COc1ccc(-n2nnc3c(=O)n(CC(=O)NCC4CCCO4)cnc32)cc1 (centres undefined)	inconclusive: 9.74 µM [activator, partial curve]
COc1ccc(/C=N/NC(=O)Cn2cnc3c2c(=O)n(C)c(=O)n3C)c(OC)c1OC	inconclusive: 38.9 µM [activator, partial curve]
O=C1c2cccnc2C(=O)N1Cc1ccc(F)cc1S(=O)(=O)NCc1ccco1	inconclusive: 30.9 µM [activator, partial curve]
CCOc1ccccc1NC(=O)CSc1ccc2nnc(-c3cccnc3)n2n1	inconclusive: 38.9 µM [activator, partial curve]
CC1C/C(=N\NC(N)=S)c2cc(Cl)ccc2S1 (centres undefined)	inactive
Brc1ccc2ncnc(NCc3cccnc3)c2c1	active: 43.6 µM
CCN(c1ccccc1)S(=O)(=O)c1ccc(OC)c(NC(=O)C2CC(=O)N(Cc3ccccc3)C2)c1 (centres undefined)	inactive
Cn1c(=O)c2c(nc(Cc3ccc(N)cc3)n2C)n(C)c1=O	inconclusive: 34.6 µM [activator, partial curve]
COc1ccccc1NC(=O)CCCc1nnc2n(C)c(=O)c3sccc3n12	inconclusive: 12.3 µM [activator, partial curve]
COc1ccc(S(=O)(=O)N(C)C)cc1NC(=O)CSc1nncs1	inconclusive: 34.6 µM [activator, partial curve]
COc1cc(Cl)c(C)cc1NC(=O)c1ccc2c(c1)OCO2	inconclusive: 119 µM [activator, single point]
